Assay results reported in PMC9911399, “Two distinct binding modes provide the RNA-binding protein RbFox with extraordinary sequence specificity”.
Changes are numbered by the printed parent chain; changes in the protein carry UniProt numbers. The list shows a part of the results.

B1: AACGAUC (DNA:RNA)
RNA: GGGAGACCGGAAUUCAGAUUGUCCAACGAUCUUAAAUCCCGUCGUAGCCACCA
DNA 1: CAATCTGAATTCCGGTCTCCC
DNA 2: TGGTGGCTACGACGGGATT
B2: UAAAGCG (DNA:RNA)
RNA: B1 RNA with A25U, C27A, G28A, A29G, U30C, C31G
DNA 1: CAATCTGAATTCCGGTCTCCC
DNA 2: TGGTGGCTACGACGGGATT
B3: UAGAUGU (DNA:RNA)
RNA: B1 RNA with A25U, C27G, G28A, A29U, U30G, C31U
DNA 1: CAATCTGAATTCCGGTCTCCC
DNA 2: TGGTGGCTACGACGGGATT
B4: UUUUGCC (DNA:RNA)
RNA: B1 RNA with A25U, A26U, C27U, G28U, A29G, U30C
DNA 1: CAATCTGAATTCCGGTCTCCC
DNA 2: TGGTGGCTACGACGGGATT
B5: UAGAGUG (DNA:RNA)
RNA: B1 RNA with A25U, C27G, G28A, A29G, C31G
DNA 1: CAATCTGAATTCCGGTCTCCC
DNA 2: TGGTGGCTACGACGGGATT
B6: ACGAAAA (DNA:RNA)
RNA: B1 RNA with A26C, C27G, G28A, U30A, C31A
DNA 1: CAATCTGAATTCCGGTCTCCC
DNA 2: TGGTGGCTACGACGGGATT
B7: GGUGACA (DNA:RNA)
RNA: B1 RNA with A25G, A26G, C27U, U30C, C31A
DNA 1: CAATCTGAATTCCGGTCTCCC
DNA 2: TGGTGGCTACGACGGGATT
B8: UUGCCGC (DNA:RNA)
RNA: B1 RNA with A25U, A26U, C27G, G28C, A29C, U30G
DNA 1: CAATCTGAATTCCGGTCTCCC
DNA 2: TGGTGGCTACGACGGGATT
B9: CCUCUGG (DNA:RNA)
RNA: GGGAGACCGGAAUUCAGAUUGUCCCCUCUGGUUAAAUCCCGUCGUAGCCACCA
DNA 1: CAATCTGAATTCCGGTCTCCC
DNA 2: TGGTGGCTACGACGGGATT
B10: CCCACUC (DNA:RNA)
RNA: B1 RNA with A25C, A26C, G28A, A29C
DNA 1: CAATCTGAATTCCGGTCTCCC
DNA 2: TGGTGGCTACGACGGGATT
B11: GAACACU (DNA:RNA)
RNA: B1 RNA with A25G, C27A, G28C, U30C, C31U
DNA 1: CAATCTGAATTCCGGTCTCCC
DNA 2: TGGTGGCTACGACGGGATT
B12: GAGUGUC (DNA:RNA)
RNA: B1 RNA with A25G, C27G, G28U, A29G
DNA 1: CAATCTGAATTCCGGTCTCCC
DNA 2: TGGTGGCTACGACGGGATT
B13: GUCAUCA (DNA:RNA)
RNA: B1 RNA with A25G, A26U, G28A, A29U, U30C, C31A
DNA 1: CAATCTGAATTCCGGTCTCCC
DNA 2: TGGTGGCTACGACGGGATT
B14: ACGCAGU (DNA:RNA)
RNA: B9 RNA with C25A, U27G, U29A, G31U
DNA 1: CAATCTGAATTCCGGTCTCCC
DNA 2: TGGTGGCTACGACGGGATT
B15: UAAUCAA (DNA:RNA)
RNA: B1 RNA with A25U, C27A, G28U, A29C, U30A, C31A
DNA 1: CAATCTGAATTCCGGTCTCCC
DNA 2: TGGTGGCTACGACGGGATT
B16: GUACAAA (DNA:RNA)
RNA: B1 RNA with A25G, A26U, C27A, G28C, U30A, C31A
DNA 1: CAATCTGAATTCCGGTCTCCC
DNA 2: TGGTGGCTACGACGGGATT
B17: UCGGAAU (DNA:RNA)
RNA: B1 RNA with A25U, A26C, C27G, U30A, C31U
DNA 1: CAATCTGAATTCCGGTCTCCC
DNA 2: TGGTGGCTACGACGGGATT
B18: UGAUCGC (DNA:RNA)
RNA: B1 RNA with A25U, A26G, C27A, G28U, A29C, U30G
DNA 1: CAATCTGAATTCCGGTCTCCC
DNA 2: TGGTGGCTACGACGGGATT
B19: GGCCGAC (DNA:RNA)
RNA: B1 RNA with A25G, A26G, G28C, A29G, U30A
DNA 1: CAATCTGAATTCCGGTCTCCC
DNA 2: TGGTGGCTACGACGGGATT
B20: UCUCGGU (DNA:RNA)
RNA: B9 RNA with C25U, U29G, G31U
DNA 1: CAATCTGAATTCCGGTCTCCC
DNA 2: TGGTGGCTACGACGGGATT
B21: CGUCUGA (DNA:RNA)
RNA: B9 RNA with C26G, G31A
DNA 1: CAATCTGAATTCCGGTCTCCC
DNA 2: TGGTGGCTACGACGGGATT
B22: UACCCGA (DNA:RNA)
RNA: B1 RNA with A25U, G28C, A29C, U30G, C31A
DNA 1: CAATCTGAATTCCGGTCTCCC
DNA 2: TGGTGGCTACGACGGGATT
B23: GGUUGGG (DNA:RNA)
RNA: B9 RNA with C25G, C26G, C28U, U29G
DNA 1: CAATCTGAATTCCGGTCTCCC
DNA 2: TGGTGGCTACGACGGGATT
B24: UGCAGCC (DNA:RNA)
RNA: B1 RNA with A25U, A26G, G28A, A29G, U30C
DNA 1: CAATCTGAATTCCGGTCTCCC
DNA 2: TGGTGGCTACGACGGGATT
B25: UGGCCUA (DNA:RNA)
RNA: B1 RNA with A25U, A26G, C27G, G28C, A29C, C31A
DNA 1: CAATCTGAATTCCGGTCTCCC
DNA 2: TGGTGGCTACGACGGGATT
B26: GAGCCUU (DNA:RNA)
RNA: B1 RNA with A25G, C27G, G28C, A29C, C31U
DNA 1: CAATCTGAATTCCGGTCTCCC
DNA 2: TGGTGGCTACGACGGGATT
B27: UAACUUG (DNA:RNA)
RNA: B9 RNA with C25U, C26A, U27A, G30U
DNA 1: CAATCTGAATTCCGGTCTCCC
DNA 2: TGGTGGCTACGACGGGATT
B28: UAUGCUG (DNA:RNA)
RNA: B1 RNA with A25U, C27U, A29C, C31G
DNA 1: CAATCTGAATTCCGGTCTCCC
DNA 2: TGGTGGCTACGACGGGATT
B29: CCGCGGA (DNA:RNA)
RNA: B9 RNA with U27G, U29G, G31A
DNA 1: CAATCTGAATTCCGGTCTCCC
DNA 2: TGGTGGCTACGACGGGATT
B30: AACCACC (DNA:RNA)
RNA: B1 RNA with G28C, U30C
DNA 1: CAATCTGAATTCCGGTCTCCC
DNA 2: TGGTGGCTACGACGGGATT
B31: CCUAUGC (DNA:RNA)
RNA: B9 RNA with C28A, G31C
DNA 1: CAATCTGAATTCCGGTCTCCC
DNA 2: TGGTGGCTACGACGGGATT

These binders were tested against T1, RBFOX1 RRM RbFoxmut (Fox-RRM*) (Homo sapiens, UniProt Q9NWB1 109-208, R118D;E147R;N151S;E152T) (assay: EMSA; HiTS-Eq, 1 nM pool, 10 min; buffer printed only for the single-RNA assays: 10 mM Tris pH 7.5, 150 mM NaCl, 3.4 mM EDTA, 0.001% NP-40, 30 C). Details: tags: His6 N-terminal (pET28a); label: 5' 32P.
T1 sequence: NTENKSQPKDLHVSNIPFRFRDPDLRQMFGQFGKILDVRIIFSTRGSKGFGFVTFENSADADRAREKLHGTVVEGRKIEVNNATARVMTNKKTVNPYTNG
Method in brief: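 Relative association constants, normalised to the cognate motif, were derived by comparing read counts of each RNA species with those of the control reaction. The RNA sequenced was the free fraction, separated by 8% native PAGE after a 10 min equilibration in 50 µL of 1 nM 5′-radiolabelled RNA (7 randomized nucleotides) with increasing concentrations of purified wild-type or mutant RbFox RRM.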
With B1 the binding signal was 0.0355 KA relative to UGCAUGU.
In the case of B2, the binding signal is reported as 0.0985 KA relative to UGCAUGU.
With B3 the binding signal was 0.0901 KA relative to UGCAUGU.
With B4 the binding signal was 0.263 KA relative to UGCAUGU.
With B5 the binding signal was 0.163 KA relative to UGCAUGU.
For B6, the binding signal was 0.073 KA relative to UGCAUGU.
With B7 the binding signal was 0.0642 KA relative to UGCAUGU.
For B8, the binding signal was 0.0955 KA relative to UGCAUGU.
B9 was tested, and the binding signal was 0.0868 KA relative to UGCAUGU.
With B10 the binding signal was 0.0625 KA relative to UGCAUGU.
For B11, the binding signal was 0.0777 KA relative to UGCAUGU.
For B12, the binding signal was 0.199 KA relative to UGCAUGU.
In the case of B13, the binding signal is reported as 0.129 KA relative to UGCAUGU.
B14 was tested, and the binding signal was 0.0815 KA relative to UGCAUGU.
In the case of B15, the binding signal is reported as 0.0593 KA relative to UGCAUGU.
For B16, the binding signal was 0.0655 KA relative to UGCAUGU.
With B17 the binding signal was 0.118 KA relative to UGCAUGU.
For B18, the binding signal was 0.0955 KA relative to UGCAUGU.
In the case of B19, the binding signal is reported as 0.0759 KA relative to UGCAUGU.
B20 was tested, and the binding signal was 0.0842 KA relative to UGCAUGU.
With B21 the binding signal was 0.109 KA relative to UGCAUGU.
For B22, the binding signal was 0.066 KA relative to UGCAUGU.
In the case of B23, the binding signal is reported as 0.0621 KA relative to UGCAUGU.
For B24, the binding signal was 0.123 KA relative to UGCAUGU.
With B25 the binding signal was 0.107 KA relative to UGCAUGU.
In the case of B26, the binding signal is reported as 0.0628 KA relative to UGCAUGU.
For B27, the binding signal was 0.0601 KA relative to UGCAUGU.
With B28 the binding signal was 0.101 KA relative to UGCAUGU.
B29 was tested, and the binding signal was 0.0985 KA relative to UGCAUGU.
B30 was tested, and the binding signal was 0.0674 KA relative to UGCAUGU.
In the case of B31, the binding signal is reported as 0.131 KA relative to UGCAUGU.
